Out of some 420,000 compounds screened, about 64,000 (15%) were called active. This list was built around the results that the source calls inconclusive (neither active nor inactive); the mix of calls is not that of the screen. The call rests on the fitted dose curve; in most records, active means well fitted inhibition curve with a large enough effect; inconclusive means small, poorly fitted or top-dose-only effect; inactive means flat fitted curve, though single readings scatter. Potencies of inconclusive entries are left out as doubtful fits.
assay: qHTS for Inhibitors of human tyrosyl-DNA phosphodiesterase 1 (TDP1): qHTS in cells in absence of CPT; conditions: DT40 Tdp1-/- hTDP1 cells, no CPT, ATP luminescence, 48 h; activity change, negative = growth inhibition: at 46.2 µM (top of the series) unless noted; further: nearly all actives have a fitted effect of over 55% in size
Outline: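 Growth of hTDP1-complemented DT40 Tdp1-knockout cells is measured by ATP luminescence after at least 48 hr compound exposure at 37 °C, with DMSO substituting for the 20 nM CPT used in the parallel screen.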
On the % scale 0 is the no-effect control and ±100 the full control effect; potency means the concentration at half of the fitted maximal effect; tags describe the fitted curve by direction and shape.

| Structure (SMILES) | Potency | activity change, negative = growth inhibition |
| --- | --- | --- |
| O=C(NCC1CCCCC1)c1cc(S(=O)(=O)N2CCOCC2)ccc1F | inconclusive [inhibitor, single point] | – |
| CC(C)c1ccc(NC(=O)C2Cc3c(-c4ccco4)ccnc3O2)cc1 (stereo not given) | inconclusive [inhibitor, single point] | – |
| Cc1ccc(C(=O)COC(=O)c2cccc(NC(=O)c3ccc(Cl)cc3Cl)c2)cc1 | inconclusive [inhibitor, single point] | – |
| CCC(SC1=NCCS1)C(=O)Nc1nnc(-c2ccccc2OC)s1 (stereo not given) | inconclusive [inhibitor, single point] | – |
| CC1CN(Cc2ccccc2)c2nc3c(c(=O)[nH]c(=O)n3C)n2C1 (stereo not given) | inactive | – |
| CCC(C)(C)NC(=O)CN(C(=O)c1snc(C(N)=O)c1N)c1ccc2c(c1)OCCO2 | inconclusive [inhibitor, single point] | – |
| COc1ccccc1C(=O)N(CCC1CCCN1C)c1nc2ccccc2s1 (stereo not given) | inconclusive [inhibitor, partial curve] | – |
| O=C(NNC(=O)c1ccccc1-c1ccccc1C(=O)O)c1cccc([N+](=O)[O-])c1 | inactive | – |
| COc1ccc(CCNC(=O)c2nc(-c3cccs3)no2)cc1OC | inconclusive [inhibitor, single point] | – |
| O=C(COC(=O)c1ccc(O)cc1O)NC1CCCCCC1 | inconclusive [inhibitor, single point] | – |
| Cc1ccc(NS(=O)(=O)c2cc(-c3cnc(C4CC4)o3)ccc2C)cc1Cl | active: 5.17 µM | – |
| O=C(c1ccc(F)cc1)N1CCN=C1c1ccccc1 | inactive | – |
| Nc1c(C(=O)Nc2ccccc2F)sc2nc3c(cc12)CCCCCC3 | active: 3.66 µM | – |
| COC(=O)c1cc(CSc2nnc(NC3CCCCC3)s2)oc1C | inconclusive [inhibitor, single point] | – |
| CC(=O)Nc1ccc(/C=C(\C#N)C(=O)NCc2ccccc2)cc1 | inconclusive [inhibitor, full curve, poor fit] | – |
| CCc1nn(CC(=O)NCCc2ccc(S(N)(=O)=O)cc2)c(=O)c2cc3sccc3n12 | inactive | – |
| CCOc1ccccc1NC(=O)CSc1nnc(-c2ccccc2Cl)n1Cc1ccco1 | inactive | – |
| Cc1ccc(Cl)cc1-c1cc(C(=O)N2CCc3ccccc3C2)[nH]n1 | inconclusive [inhibitor, single point] | – |
| Cc1nn(CCCC(=O)NCCCN2CCN(C)CC2)c(=O)c2c1sc1ccccc12 | inactive | – |
| Cc1cc(CNC(=O)COc2ccc(C)c(C)c2)c2ccccc2n1 | inconclusive [inhibitor, single point] | – |
| C=C(C)Cn1c(CCNC(=O)c2ccco2)nc2ccccc21 | inconclusive [inhibitor, partial curve, poor fit] | – |
| CCOC(=O)CC(=O)CSc1nc(-c2ccc3c(c2)OCO3)cc(C(F)(F)F)c1C#N | inactive | – |
| COc1ccc(NC(=O)NC2(C(=O)N3CCCC(C)C3)CCCCC2)cc1 (stereo not given) | inconclusive [inhibitor, single point] | – |
| COc1ccc(Cl)cc1N(C)C(=O)c1cc2c(=O)oc3ccc(C)cc3c2s1 | inconclusive [inhibitor, single point] | – |

| Structure (SMILES) | Potency | activity change, negative = growth inhibition |
| --- | --- | --- |
| Cc1ccc(C)c(NS(=O)(=O)c2ccc3oc(=O)ccc3c2)c1 | inconclusive [inhibitor, single point] | – |
| COc1ccc(Cc2nc3c4cnn(-c5ccccc5F)c4ncn3n2)cc1 | inconclusive [inhibitor, partial curve] | – |
| COc1cc(C)nc(NC(=S)N(C)C(=O)c2ccccc2)n1 | inactive | – |
| CN(CCO)c1ccc(-c2n[nH]c(=O)c3ccccc23)cc1[N+](=O)[O-] | inconclusive [inhibitor, partial curve, poor fit] | – |
| CCc1ccc(NC(=O)CCNS(=O)(=O)c2ccc3c(c2)oc(=O)n3C)cc1 | inactive | – |
| O=C(CCc1ccc(S(=O)(=O)N2CCOCC2)cc1)N/N=C/c1ccc(F)cc1F | inconclusive [inhibitor, partial curve, poor fit] | – |
| CC(C)C(OC(=O)/C=C/c1ccc2c(c1)OCO2)C(=O)NC(N)=O (stereo not given) | inactive | – |
| O=C(CN1CCC(NC(=O)C2CC2)CC1)Nc1ccccc1[N+](=O)[O-] | inactive | – |
| CCOC(=O)c1ccccc1NC(=O)CN1CCCN(Cc2cccc(Cl)c2)S1(=O)=O | inconclusive [inhibitor, single point] | – |
| COCc1cc(=O)n2[nH]cc(-c3ccccc3)c2n1 | inconclusive [inhibitor, single point] | – |
| CCCCNC(=O)c1cc(-c2ccc(OC)cc2)nc2n[nH]c(-c3cccc([N+](=O)[O-])c3)c12 | active: 18.4 µM | – |
| CCOc1ccc(C(=O)C2CCN(CC(=O)Nc3nccs3)CC2)cc1 | inconclusive [inhibitor, single point] | – |
| COc1ccccc1-c1cc(C(=O)N/N=C\c2cn(C)nc2C)c2ccccc2n1 | active: 13 µM | – |
| CCN(CC)c1ccc(C(=O)NCc2ccc3c(c2)CCN3C(=O)c2ccc(F)cc2)cc1 | active: 4.61 µM | – |
| O=[N+]([O-])c1ccc(S(=O)(=O)NCC(c2ccc3c(c2)OCO3)N2CCOCC2)cc1 (stereo not given) | inconclusive [inhibitor, single point] | – |
| Cc1ccc(CNC(=O)c2ccc3c(c2)nc2n3CCOC2)cc1 | inactive | – |
| Cc1ccc(-n2nc(C)c3c(C(=O)NCCc4ccccc4)cc(C)nc32)cc1 | inconclusive [inhibitor, single point] | – |
| CC1(C)CC(=O)c2cn3c(nc2C1)nc1ccccc13 | inconclusive [inhibitor, single point] | – |
| Cc1ccc(C)c(S(=O)(=O)NCC(=O)OCC(=O)Nc2sccc2C(N)=O)c1 | inactive | – |
| Cc1nc(NC(=O)CSc2nnc(-c3ccc4c(c3)OCO4)o2)c(Cl)cc1Cl | – | inconclusive: -37.6% [inhibitor] |
| CCN(CC)CCCNC(=O)c1nn(C)c2c1CSc1ccccc1-2 | inconclusive [inhibitor, single point] | – |
| O=C(O)c1ccc(Cl)c(S(=O)(=O)N2CCCC2)c1 | inactive | – |
| CCn1c2ccccc2c2nnc(SCN3C(=O)c4ccccc4C3=O)nc21 | inactive | – |
| COCCNCCCCOc1ccc(Br)cc1C | active: 23.1 µM | – |

| Structure (SMILES) | Potency | activity change, negative = growth inhibition |
| --- | --- | --- |
| C=CCn1cccc(C(=O)Nc2ccc(OC)c(Cl)c2)c1=O | inconclusive [inhibitor, single point] | – |
| CC1CCCN(C(=O)c2ccc(S(=O)(=O)Nc3ccccc3Cl)cc2)C1 (stereo not given) | inconclusive [inhibitor, single point] | – |
| NC(=O)c1cc2ccc(O)cc2oc1=Nc1ccccc1 | inconclusive [inhibitor, single point] | – |
| COc1ccc(C(=O)NNc2ncnc3c2cnn3-c2cccc(Cl)c2)cc1OC | inconclusive [inhibitor, single point] | – |
| COc1ccc(CCNC(=O)Nc2ccccc2[N+](=O)[O-])cc1 | inconclusive [inhibitor, single point] | – |
| O=C(c1cn(-c2ccccc2)nc1-c1cccc(Br)c1)N1CCOCC1 | inconclusive [inhibitor, single point] | – |
| CCOC(=O)C1CCCN(C(=O)c2ccccc2NC(C)=O)C1 (stereo not given) | – | inconclusive: -44.3% [inhibitor] |
| COc1ccc(C2=NOC(C(=O)NCc3ccco3)C2)cc1 (stereo not given) | active: 2.82 µM | – |
| Cc1ccc(C(=O)N2CCN(c3cc4c(cc3[N+](=O)[O-])n(C)c(=O)n4C)CC2)cc1 | inconclusive [inhibitor, partial curve] | – |
| COC(=O)c1ccc(NC(=O)Cn2cnc3c(nnn3-c3cccc(OC)c3)c2=O)cc1 | inconclusive [inhibitor, partial curve, poor fit] | – |
| Cc1noc(C)c1S(=O)(=O)N(CC(=O)N1CCCCCC1)c1ccc(C(C)C)cc1 | inconclusive [inhibitor, single point] | – |
| O=C(CN1C2=NCCN2c2ccccc21)c1ccc(Br)cc1 | inconclusive [inhibitor, single point] | – |
| Cn1c2c(c(=O)n(C)c1=O)C(c1cccc(F)c1)C(C#N)=C(N)O2 (stereo not given) | inactive | – |
| Cc1cs/c(=N\N=C\c2ccccc2)n1Cc1ccco1 | inconclusive [inhibitor, single point] | – |
| C/C(=N\N1CCN(c2ccccc2)CC1)c1ccco1 | inconclusive [inhibitor, single point] | – |
| COC(=O)c1ccccc1NC(=O)c1cnn2c(C(F)F)cc(C3CC3)nc12 | active: 14.6 µM | – |
| Cc1cc(C)c(C(=O)OCC(=O)Nc2cccc(S(=O)(=O)N3CCCCC3)c2)c(C)c1 | inconclusive [inhibitor, single point] | – |
| Cc1cccc(N(CC(=O)NCCSCc2cccc(Cl)c2)S(=O)(=O)c2ccccc2)c1C | active: 20.6 µM | – |
| O=C(Nc1ccc2c(c1)OCCO2)c1cccc(C(=O)Nc2ccc3c(c2)OCCO3)c1 | inactive | – |
| O=C(Nc1cc(S(=O)(=O)N2CCCCC2)ccc1Cl)c1ccc(F)cc1 | inactive | – |
| Cc1ccc(C)c(Cn2c(=O)n(C)c(=O)c3sccc32)c1 | inconclusive [inhibitor, single point] | – |
| CC(C)(Oc1ccc(Cl)cc1)C(=O)Nc1c2c(nn1C(C)(C)C)CS(=O)(=O)C2 | inconclusive [inhibitor, partial curve] | – |

Reference: PubChem BioAssay AID686978 (National Center for Advancing Translational Sciences (NCATS), 2013)
